# Data published in ChEMBL document CHEMBL4888484, “Replenishing the malaria drug discovery pipeline: Screening and hit evaluation of the MMV Hit Generation Library 1 (HGL1) against asexual blood stage Plasmodium falciparum ,using a nano luciferase reporter read-out” (2022).
# The whole screen tested about 150,000 compounds, of which about 540 (0.36%) showed an effect of 50% or more. The list shows a part of the results.
# Test system: Plasmodium falciparum
# Test: Primary screen in NF54 nanoGlo assay, in single point, at 2uM, 72h; a lower Z score goes with more inhibition
# Type: functional, Erythrocyte
# Conditions: timepoint 72 hour
SMILES,% Inhibition [%],Z score
CC(F)(F)CC(=O)Nc1cccc(O)c1,8,-1.02
COc1ccccc1N1CCN(C[C@]2(O)CCCN(CC(C)(C)C)C2=O)CC1,7,-0.81
Cc1ncsc1CCN(C)Cc1c(C)noc1C,-10,1.73
CCN(CC(=O)N1CCCCCC1)C(=O)c1cc(C(C)C)n(C)n1,-15,1.95
CCOc1ccc(-c2cn(C3CN(C(=O)c4cccnc4)C3)nn2)cc1,-9,0.83
O=C(c1cccnc1)N1CC[C@@]2(CCCN(CC3CCCCC3)C2=O)C1,-12,2.11
CN1C(=O)c2cccn2C[C@@H]1CNC(=O)c1nccn1C,-6,1.11
O=C(Cn1cccnc1=O)N(Cc1ccccn1)C1CCCCC1,-8,1.73
Cc1ccsc1CN(C)[C@@H](C(=O)O)c1c(C)noc1C,-6,0.54
Cn1cc(C(=O)N2CCCN([C@H]3COC[C@@H]3O)CC2)c(=O)c2ccccc21,-6,0.8
Cc1c(F)cccc1S(=O)(=O)N1CC[C@H](c2nccn2C)C1,1,-0.07
Cc1nn(-c2ccc(F)cc2)c2[nH]nc(NC(=O)Cn3cnnn3)c12,-7,0.88
Cc1cc(S(=O)(=O)CC#N)ccc1F,1,-0.15
CCC(=O)N(Cc1ccc(C)cc1)c1ccc(CC(=O)NCc2ccccc2)cc1,-22,2.16
Clc1ccc(-c2noc(C3CNC3)n2)cc1,37,-3.77
CCOC1CC(N(C)C(=O)c2ccc(COC)o2)C12CCCC2 (centres undefined),-14,1.51
O=C1NC2(CCCCCCC2)C(=O)N1C[C@H](O)c1ccccc1F,-21,3.53
Cc1[nH]c2ccccc2c1C(c1ccccc1OCc1ccccc1Cl)c1c(C)[nH]c2ccccc12,-10,1.26
CC(C)c1nc(C(=O)N2CCN(c3ccc4ccccc4c3)CC2)cs1,-5,0.73
CC(C)N(C)c1ccc(CNCc2ccc3c(c2)OCCO3)cn1,-8,0.84
Cc1noc(C)c1CN1CCN2C(=O)c3ccc(-c4ccccc4)cc3OCC[C@@H]3CC[C@H](O)[C@@H](CNC(=O)[C@@H]2C1)O3,-10,1.83

SMILES,% Inhibition [%],Z score
CC(=O)Nc1cccc(NC(=O)COC(=O)c2ccc3c(c2)nc(C)n3-c2ccccc2)c1,-7,1.34
CC1CCN(C[C@H](O)Cn2cnc3nc(N4CCCC4)sc3c2=O)CC1,-15,1.22
CCn1nc(C)cc1-c1nc(-c2c(C)ncc3c2CCN(C(C)=O)C3)no1,-9,1.7
Cc1cc(NCc2ccc(C(=O)N(C)C)[nH]2)ccc1C(=O)NC(C)C,2,-0.28
CC1CCCCC1NC(=O)COC(=O)c1ccc2nccnc2c1 (centres undefined),-1,0.07
CCn1nc(CC(C)C)cc1C(=O)NCCc1cn2cccnc2n1,-5,0.94
Cc1ccc(S(=O)(=O)N2CCN(C(=O)CN3CCCCCC3)CC2)cc1,-15,2.19
O=C(c1ccn2c(-c3ccc(F)cc3)nnc2c1)N1CCN(c2cccc(C(F)(F)F)c2)CC1,-13,2.21
c1ccc(COC[C@H](Nc2ncnc3ccccc23)c2ccccc2)cc1,-12,1.08
Cc1cc(C(=O)N2CC(C(=O)Nc3ccc(F)c(Cl)c3)C2)no1,-1,0.23
CCCN(CC1CC1)S(=O)(=O)c1cccs1,-8,0.99
Cn1nc(C2CCCC2)cc1NC(=O)c1ccc(OCC(=O)O)cc1,1,-0.23
Cc1ccc(NC(=O)c2cn(CC3(O)CCN(Cc4ccccc4)CC3)nn2)c(C)c1,36,-1.1
O=C(NC[C@H](O)c1ccc2c(c1)OCCO2)Nc1ccccc1C(F)(F)F,7,-0.95
O=C1C[C@H](c2ncc[nH]2)c2cnn(-c3ccccc3)c2N1,-10,1.79
O=C(Cc1cccc(C(=O)O)c1)NC1(Cc2ccc(F)cc2)CC1,-30,3.47
O=S(=O)(c1cccnc1Nc1cccc(C(F)(F)F)c1)N1CCOCC1,-37,4.31
CCn1c(=O)c(-c2ccc(C(=O)N[C@@H](C)c3ccccc3)cc2)nc2cccnc21,-4,0.62
CC(C)N(C)Cc1nnnn1CC(=O)N(C)Cc1ccnc2ccccc12,-17,1.54
CCN(CC)C(=O)c1ccccc1NC(=O)C1CCN(S(=O)(=O)Cc2ccccc2Cl)CC1,-1,0.19
CCc1n[nH]c(=O)c(C(=O)N2CC3CCCCC3C2)c1CC (centres undefined),1,-0.1

SMILES,% Inhibition [%],Z score
CCC(C)NC(=O)C1CCC(c2ccc(F)cc2)N(C(=O)c2ccccc2)C1 (centres undefined),-11,1.47
CN(CCCNC(=O)CCC(=O)N1CCOc2ccc(Cl)cc21)Cc1ccccc1,-15,2.17
Cc1cc(NC2C3CC2N(C(=O)OC(C)(C)C)C3)n2ncnc2n1 (centres undefined),7,-0.83
CC1(C)CCCN(C(=O)c2cccc(Nc3cnccn3)c2)[C@@H]1C#N,-2,0.28
O=C(C(c1ccccc1)c1ccccc1)N1CC(=O)N(C2CC2)C1,0,0.01
CC(C)C(=O)Nc1c(-c2ccccn2)nsc1C(=O)NC[C@H]1CCCO1,-13,1.25
Cc1ccc(CC(C)(C)Nc2ncnc3c2ncn3C)cc1,-3,0.49
O=C(Nc1ccc(C2OC(=O)N(Cc3cccc(F)c3)C2C(=O)NCCc2ccccn2)cc1)c1ccco1 (centres undefined),-19,2.7
Cc1nc(C)n(CCC(=O)Nc2ccccn2)n1,5,-0.47
COc1ccc(CN[C@@H](C)c2cccc(NS(C)(=O)=O)c2)s1,-8,0.73
COCCCN1CC2(CCN(c3nc(C)cc(C4CCC4)n3)CC2)CC1=O,-13,2.38
O=C(O)[C@H]1CCCN1Cc1cc(Cl)ccc1OCc1cccnc1,-5,0.58
CC(NC(=O)C1CC1c1ccc(C(C)C)cc1)C(=O)N1CCOCC1 (centres undefined),5,-0.61
Cc1nnc(CNC2(c3ccc(C(F)(F)F)cc3)CCCC2)s1,-6,0.96
CC(C)=CCC[C@H](C)CN1CCC(C(N)=O)CC1,5,-0.73
Cc1ccc(CCn2c3c(c4ccccc42)CN(C)CC3)cn1.Cc1ccc(CCn2c3c(c4ccccc42)CN(C)CC3)cn1,6,-1.12
CC(=O)NC(c1ccc(Cl)cc1)C1CCCCC1=O (centres undefined),-5,0.64
O=C(CCC1CCN(Cc2ncon2)CC1)Nc1ccc2c(c1)OCCO2,-6,1.01
CNC(=O)[C@@H]1CN(S(=O)(=O)c2ccc(Cl)s2)C[C@H]1c1nc(C)no1,-4,0.65
NC(=O)[C@H]1CCN(C(=O)c2cc(-c3ccc(F)cc3)[nH]n2)C1,-11,1.49
O=C(N/N=C1/Nc2ccccc2C1=O)c1ccc(Cl)cc1,0,0.01

SMILES,% Inhibition [%],Z score
C[C@]1(CCc2ccccc2)CCN(C(=O)CCn2cncn2)C1,-1,0.08
Cc1ccc(NC(=O)Cn2cccc2-c2nc(-c3ccc(Cl)cc3)no2)cc1F,-12,1.49
c1ccc(COc2ccccc2OCCNCCN2CCOCC2)cc1,-13,1.49
CC[C@H]1CCN1C(=O)Cn1ccc2ccccc2c1=O,-9,1.12
CC1(C)CN(S(=O)(=O)c2ccc3ccccc3c2)CC[S@@+]1[O-],-12,1.37
C=CCN(CC1CC1)S(=O)(=O)C(C)(C)C,-15,2.12
COc1ccc(S(=O)(=O)N2CCOCC2)cc1NC(=O)Cn1cc(C#N)ccc1=O,-3,0.43
O=C(NCC1(c2ccc(F)cc2Cl)CC1)N1CC(=O)N(C2CC2)C1,-3,0.6
CCOc1cccnc1N1CCN(S(=O)(=O)C2(C)CC2)CC1,0,-0.03
C=CCc1cc(CN2CCC[C@H]2c2nc(C)no2)cc(OC)c1OC(C)C,-2,0.2
COCCNC(=O)c1ccc(N[C@@H](C)c2ccccn2)nc1,12,-1.6
CCC(=O)N(Cc1ccc(OC)c(OC(C)C)c1)C1CCCC1,-4,0.58
CCc1c(C)sc2c1CCN(CC(=O)Nc1ccc(OC)cc1)[C@@H]2c1ccccc1,-16,1.53
Cc1ccc(Cl)cc1NC(=O)Cc1csc(NC(=O)[C@@H]2CCC(=O)N2)n1,-12,1.43
N#Cc1cccc(C(=O)N2CCCN(c3nc4ccccc4nc3-c3ccccc3)CC2)c1,-16,2.16
CN(Cc1[nH]c2ccccc2c1Cl)C[C@H]1CC(=O)N(C(C)(C)C)C1,-1,0.08
O=C(Cc1coc(-c2ccc(F)cc2)n1)N1CCCC[C@@H]1CCO,-2,0.33
Cc1cc(C(=O)N(CC2CCN(C3Cc4ccccc4C3)CC2)C[C@H]2CCCO2)nc(N)n1,7,-0.8
COC(CS(=O)(=O)Nc1ccc(C)cc1C(=O)C(F)(F)F)C1CCOC1 (centres undefined),-1,0.16
